Reference: PubChem BioAssay AID686978 (National Center for Advancing Translational Sciences (NCATS), 2013)
About 64,000 (15%) of roughly 420,000 compounds were called active. Inconclusive results, whose numbers are uncertain, are shown with a selection of clear calls. Calls come from the whole dose curve; as a rule, active = well fitted inhibition curve with a large enough effect; inconclusive = small, poorly fitted or top-dose-only effect; inactive = flat fitted curve, though single readings scatter. No potency is given beside an inconclusive call; the fits are too rough.
% is set by controls: 0 for no effect and ±100 for the full control effect; potency is the fitted concentration of half-maximal effect; tags give direction and shape of the fitted curve.

Assay: qHTS for Inhibitors of human tyrosyl-DNA phosphodiesterase 1 (TDP1): qHTS in cells in absence of CPT; note: nearly all actives have a fitted effect of over 55% in size
Conditions: DT40 Tdp1-/- hTDP1 cells, no CPT, ATP luminescence, 48 h; activity change, negative = growth inhibition: at 46.2 µM (top of the series) unless noted
Summary of the method: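 Camptothecin absent (DMSO only). Human TDP1-complemented DT40 knockout cells, 400 cells/well, 37 °C for minimum 48 hr; ATP measured via CellTiter-Glo, 30 min dark incubation, luminescence.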
In the case of COc1ccc2c(c1)C(C)=CC(C)(C)N2C(=O)CNCc1ccc2c(c1)OCO2, the Potency is reported as active: 20.6 µM.
For CCOC(=O)N1CCN(CC(O)c2c[nH]c3ccc(OC)cc23)CC1 (stereo unspecified), the Potency was inconclusive [inhibitor, single point].
For CCN(CC)c1ccc(NS(=O)(=O)c2cc(-c3cc(C)no3)ccc2C)c(C)c1, the Potency was inconclusive [inhibitor, single point].
With CN1CCN(S(=O)(=O)c2ccc(N3CCN(C(=O)c4ccccc4)CC3)nc2)CC1 the Potency was inconclusive [inhibitor, single point].
In the case of O=C(NC1CC1)c1sc2cc(F)ccc2c1Cl, the Potency is reported as inconclusive [inhibitor, single point].
For Cc1ccc(OCC(O)CNCc2ccc(F)cc2)cc1 (stereo unspecified), the Potency was inconclusive [inhibitor, single point].
With CCOC(=O)N1CCC(NC(=O)CSCc2nc(-c3cccc(OC)c3)oc2C)CC1 the Potency was inconclusive [inhibitor, single point].
For CCCCn1c(N)c(N(CC(C)C)C(=O)c2oc3ccc(Br)cc3c2C)c(=O)[nH]c1=O, the “activity change, negative = growth inhibition” value was inactive: -28.6%.
With Cc1cccc([C@@H](NC(=O)OC(C)(C)C)C(=O)OC(C)(C)C)c1 the “activity change, negative = growth inhibition” value was inactive: -13.1%.
With Nc1nonc1C(=O)NCCNC(=O)c1cccc(Cl)c1 the “activity change, negative = growth inhibition” value was inactive: -17.7%.
For Cc1cc(CN2CCOCC2)c(O)c(C2(C)CCCCC2)c1, the Potency was inconclusive [inhibitor, partial curve, poor fit].
For O=C(CCCOC(=O)c1cccnc1Cl)c1ccc(Br)cc1, the Potency was inconclusive [inhibitor, single point].
In the case of CCCCc1nc2ccc(F)cc2cc1C, the “activity change, negative = growth inhibition” value is reported as inactive: 0.145%.
For COc1ccc(C(=O)NCCn2ccc3ccccc32)cc1, the Potency was inconclusive [inhibitor, single point].
For CC(/C=C/c1ccccc1)=N\NC(N)=S, the Potency was active: 20.6 µM.
In the case of C/C(=N/Nc1ccnc2cc(Cl)ccc12)c1ccc(N)cc1, the Potency is reported as active: 18.4 µM.
In the case of O=C(Nc1ccc2c(c1)OCO2)c1cc(C2CCCCN2C(=O)CCc2ccccc2)on1 (stereo unspecified), the Potency is reported as inconclusive [inhibitor, partial curve].
In the case of COc1ccc2nc(C)cc(SCC(=O)NNC(=O)COc3ccccc3)c2c1, the Potency is reported as inconclusive [inhibitor, partial curve].
For Cc1cccc(Cn2c(SCCN3CCCCC3)nc3c2c(=O)[nH]c(=O)n3C)c1, the Potency was inconclusive [inhibitor, single point].
With O=C(c1cccc(C(F)(F)F)c1)C1CCCN(Cc2cccn2-c2ccccn2)C1 (stereo unspecified) the Potency was active: 14.6 µM.
For COc1cc(OC)cc(C(=O)N[C@H](C(=O)NCc2ccc(F)cc2)C(C)C)c1, the Potency was inconclusive [inhibitor, single point].
With O=C(Cc1cccs1)N/N=C/C(Br)=C/c1ccccc1 the Potency was inconclusive [inhibitor, partial curve].
With COc1cc(NC(=S)Nc2ccccn2)cc(OC)c1OC the Potency was inconclusive [inhibitor, single point].
In the case of COC(=O)c1ccc(OS(=O)(=O)c2ccc(NC(C)=O)cc2)cc1, the Potency is reported as inconclusive [inhibitor, single point].
In the case of C=CCn1cc(C(=O)c2cc(Br)ccc2O)cc(C#N)c1=O, the Potency is reported as inconclusive [inhibitor, single point].
In the case of CC(C(=O)O)N(C(=O)c1ccccc1)c1ccc(F)cc1 (stereo unspecified), the “activity change, negative = growth inhibition” value is reported as inactive: -0.141%.
In the case of CCc1nc(C)cn1S(=O)(=O)c1ccc2c(c1)OCCO2, the Potency is reported as inconclusive [inhibitor, partial curve, poor fit].
In the case of COc1ccc(CCNCC(=O)Nc2ccc(OC(F)(F)F)cc2)cc1OC, the “activity change, negative = growth inhibition” value is reported as inactive: -20.6%.
For CC(C)Sc1nc2ccsc2c(=O)[nH]1, the Potency was inconclusive [inhibitor, single point].
With COc1ccc(N2CCN(C(=O)c3cc(N4C(=O)C5C6CCC(C6)C5C4=O)ccc3Cl)CC2)cc1 (stereo unspecified) the Potency was inconclusive [inhibitor, single point].
In the case of Cc1sc2nc(CN3CCOCC3)nc(N3CCOCC3)c2c1C, the Potency is reported as inconclusive [inhibitor, partial curve].
For CC1=CC(c2ccccc2)n2ncnc2N1 (stereo unspecified), the “activity change, negative = growth inhibition” value was inactive: 1.55%.
With CC1CN(CC(=O)NCC2(N3CCOCC3)CCCC2)Cc2cc(Cl)ccc2O1 (stereo unspecified) the Potency was inconclusive [inhibitor, single point].
In the case of CCCc1c(C(=O)N/N=C(\C)CCc2ccc(OC)cc2)nnn1-c1nonc1N, the “activity change, negative = growth inhibition” value is reported as inactive: 15.5%.
For CCN(C(=O)CN1C(=O)c2ccccc2S1(=O)=O)C1CCCCC1, the “activity change, negative = growth inhibition” value was inactive: -1.92%.
For COc1ccc(NC(=O)C2CCC2)cc1S(=O)(=O)N1CCOCC1, the “activity change, negative = growth inhibition” value was inactive: 1.88%.
In the case of CN1CCN(C(=O)CCNC(=O)Cn2ccc3ccccc3c2=O)CC1, the Potency is reported as inconclusive [inhibitor, partial curve].
With Cc1cccc(C)c1-n1ncc(C(=O)NC2CCCC2)c1C1CCN(C(=O)OC(C)(C)C)CC1 the Potency was inconclusive [inhibitor, partial curve].
For O=C(CCC(=O)Nc1ccc(Br)cc1)N/N=C/c1ccccc1O, the Potency was active: 6.51 µM.
With C=CCN1C(=O)NC(c2ccccc2)(C(F)(F)F)S/C1=C(\C#N)c1nnc(N2CCOCC2)n1-c1ccccc1 (stereo unspecified) the Potency was inconclusive [inhibitor, single point].
With O=C1c2ccccc2C(c2nnnn2-c2ccc3c(c2)OCCO3)N1Cc1cccnc1 (stereo unspecified) the Potency was inconclusive [inhibitor, partial curve].
In the case of N#CC1=C(N)c2ccccc2CC12CCCCC2, the Potency is reported as inconclusive [inhibitor, partial curve].
With O=C(c1cccn2c(=O)c3cc(Cl)ccc3nc12)N1CCOCC1 the “activity change, negative = growth inhibition” value was inactive: -12.9%.
For O=C(O)c1cc(-c2ccccc2)nc2ccccc12, the Potency was “inactive”.
For O=S(=O)(CC(O)COc1ccc(Br)cc1)c1ccccc1 (stereo unspecified), the Potency was inconclusive [inhibitor, partial curve].
For O=C(Nc1ccn(CCCNCc2ccccc2)c(=O)n1)OCc1ccccc1, the Potency was inconclusive [inhibitor, single point].
